# Laboratory results from the supplement of paper PMC8728848.
# The other results are listed elsewhere or left out.
# B1: MpAFP NterminalRI GFP (Marinomonas primoryensis) (protein)
# chain: MSDNQFPFATLGNAIGFITKLDGSVTVQSIDGQERVLKLGDPIFFGETVLTGGSGSVTIAFVDGTDVVIGGDSIVEMTDEIYNTGDNEDLVADSSSEIDALQNAILAGDDPTLIQDAPAAGNTLADQQRVDVSIERNDNSAQAGFGVDTQSSLPTYGYDTDNGNGGQATEREYSAPSLSRTLNQSPLLEHHHHHH
# How the values were obtained:
# Assay in all cases: glycan array binding signal (z-score within array); higher = stronger binding
# Details in all cases: glycan notation: IUPAC condensed, linker removed
# [1] = biological target: Gal(b1-3)GlcNAc(b1-2)Man(a1-3)[Gal(b1-3)GlcNAc(b1-2)Man(a1-6)]Man(b1-4)GlcNAc(b1-4)GlcNAc
# In short: (§1)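 The binding signal is a Z-score computed within each array and averaged over linkers. Arrays of the same protein sequence at different concentrations or buffers were also averaged together. Data originate from 3228 arrays in the Consortium for Functional Glycomics database, kept only where the protein sequence was available.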
# [2] = biological target: Gal(b1-3)GlcNAc(b1-2)Man(a1-3)[Gal(b1-3)GlcNAc(b1-2)Man(a1-6)]Man(b1-4)GlcNAc(b1-4)[Fuc(a1-6)]GlcNAc
# In short: as §1
# [3] = biological target: Gal(b1-3)GlcNAc(b1-2)Man(a1-3)[GlcNAc(b1-4)][Gal(b1-3)GlcNAc(b1-2)Man(a1-6)]Man(b1-4)GlcNAc(b1-4)GlcNAc
# In short: as §1
# [4] = biological target: Gal(b1-3)GlcNAc(b1-2)[Gal(b1-3)GlcNAc(b1-6)]Man(a1-6)[Gal(b1-3)GlcNAc(b1-2)Man(a1-3)]Man(b1-4)GlcNAc(b1-4)GlcNAc
# In short: as §1
# [5] = biological target: Gal(b1-3)GlcNAc(b1-3)Gal(b1-3)GlcNAc
# In short: as §1
# [6] = biological target: Gal(b1-3)GlcNAc(b1-3)Gal(b1-4)Glc
# In short: as §1
# [7] = biological target: Gal(b1-3)GlcNAc(b1-3)Gal(b1-4)GlcNAc
# In short: as §1
# [8] = biological target: Gal(b1-3)GlcNAc(b1-3)Gal(b1-4)GlcNAc(b1-2)Man(a1-3)[Gal(b1-3)GlcNAc(b1-3)Gal(b1-4)GlcNAc(b1-2)Man(a1-6)]Man(b1-4)GlcNAc(b1-4)GlcNAc
# In short: as §1
# [9] = biological target: Gal(b1-3)GlcNAc(b1-3)Gal(b1-4)GlcNAc(b1-2)[Gal(b1-3)GlcNAc(b1-3)Gal(b1-4)GlcNAc(b1-6)]Man(a1-6)[Gal(b1-3)GlcNAc(b1-3)Gal(b1-4)GlcNAc(b1-2)Man(a1-3)]Man(b1-4)GlcNAc(b1-4)[Fuc(a1-6)]GlcNAc
# In short: as §1
# [10] = biological target: Gal(b1-3)GlcNAc(b1-3)Gal(b1-4)GlcNAc(b1-3)Gal(b1-4)GlcNAc(b1-2)[Gal(b1-3)GlcNAc(b1-3)Gal(b1-4)GlcNAc(b1-3)Gal(b1-4)GlcNAc(b1-6)]Man(a1-6)[Gal(b1-3)GlcNAc(b1-3)Gal(b1-4)GlcNAc(b1-3)Gal(b1-4)GlcNAc(b1-2)Man(a1-3)]Man(b1-4)GlcNAc(b1-4)[Fuc(a1-6)]GlcNAc
# In short: as §1
# [11] = biological target: Gal(b1-3)GlcNAc(b1-3)Gal(b1-4)GlcNAc(b1-6)[Gal(b1-3)GlcNAc(b1-3)]Gal(b1-4)Glc
# In short: as §1
# [12] = biological target: Gal(b1-3)GlcNAc(b1-3)Gal(b1-4)[Fuc(a1-3)]GlcNAc
# In short: as §1
# [13] = biological target: Gal(b1-3)GlcNAc(b1-3)Gal(b1-4)[Fuc(a1-3)]GlcNAc(b1-6)[Gal(b1-3)GlcNAc(b1-3)]Gal(b1-4)Glc
# In short: as §1
# [14] = biological target: Gal(b1-3)GlcNAc(b1-3)GalNAc
# In short: as §1
# [15] = biological target: Gal(b1-3)GlcNAc(b1-6)Gal(b1-4)GlcNAc
# In short: as §1
# [16] = biological target: Gal(b1-3)GlcNAc(b1-6)GalNAc
# In short: as §1
# [17] = biological target: Gal(b1-3)GlcNAc(b1-6)[Gal(b1-3)]GalNAc
# In short: as §1
# [18] = biological target: Gal(b1-3)GlcNAc6S
# In short: as §1
# [19] = biological target: Gal(b1-3)[Fuc(a1-4)]GlcNAc
# In short: as §1
# [20] = biological target: Gal(b1-3)[Fuc(a1-4)]GlcNAc(b1-2)Man
# In short: as §1
# [21] = biological target: Gal(b1-3)[Fuc(a1-4)]GlcNAc(b1-2)Man(a1-3)[Gal(b1-3)[Fuc(a1-4)]GlcNAc(b1-2)Man(a1-6)]Man(b1-4)GlcNAc(b1-4)[Fuc(a1-6)]GlcNAc
# In short: as §1
# [22] = biological target: Gal(b1-3)[Fuc(a1-4)]GlcNAc(b1-3)Gal(b1-3)[Fuc(a1-4)]GlcNAc
# In short: as §1
# [23] = biological target: Gal(b1-3)[Fuc(a1-4)]GlcNAc(b1-3)Gal(b1-4)[Fuc(a1-3)]GlcNAc
# In short: as §1
# [24] = biological target: Gal(b1-3)[Fuc(a1-4)]GlcNAc(b1-6)GalNAc
# In short: as §1
# [25] = biological target: Gal(b1-3)[GlcNAc(b1-6)]GalNAc
# In short: as §1
# [26] = biological target: Gal(b1-3)[Neu5Ac(a2-6)]GalNAc
# In short: as §1
# [27] = biological target: Gal(b1-3)[Neu5Ac(a2-6)]GlcNAc(b1-4)Gal(b1-4)Glc
# In short: as §1
# [28] = biological target: Gal(b1-3)[Neu5Ac(b2-6)]GalNAc
# In short: as §1
# [29] = biological target: Gal(b1-4)Gal
# In short: as §1
# [30] = biological target: Gal(b1-4)GalNAc(a1-3)[Fuc(a1-2)]Gal(b1-4)GlcNAc
# In short: as §1
# [31] = biological target: Gal(b1-4)GalNAc(b1-3)[Fuc(a1-2)]Gal(b1-4)GlcNAc
# In short: as §1
# [32] = biological target: Gal(b1-4)Glc
# In short: as §1
# [33] = biological target: Gal(b1-4)Glc6S
# In short: as §1
# [34] = biological target: Gal(b1-4)GlcNAc
# In short: as §1
# [35] = biological target: Gal(b1-4)GlcNAc(a1-6)Gal(b1-4)GlcNAc
# In short: as §1
# [36] = biological target: Gal(b1-4)GlcNAc(b1-2)Man
# In short: as §1
# [37] = biological target: Gal(b1-4)GlcNAc(b1-2)Man(a1-3)Man(b1-4)GlcNAc(b1-4)GlcNAc
# In short: as §1
# [38] = biological target: Gal(b1-4)GlcNAc(b1-2)Man(a1-3)[Gal(b1-4)GlcNAc(b1-2)Man(a1-6)]Man(b1-4)GlcNAc(b1-4)GlcNAc
# In short: as §1
# [39] = biological target: Gal(b1-4)GlcNAc(b1-2)Man(a1-3)[Gal(b1-4)GlcNAc(b1-2)Man(a1-6)]Man(b1-4)GlcNAc(b1-4)[Fuc(a1-6)]GlcNAc
# In short: as §1
# [40] = biological target: Gal(b1-4)GlcNAc(b1-2)Man(a1-3)[Gal(b1-4)GlcNAc(b1-2)Man(a1-6)][Gal(b1-4)GlcNAc(b1-4)]Man(b1-4)GlcNAc(b1-4)[Fuc(a1-6)]GlcNAc
# In short: as §1
# [41] = biological target: Gal(b1-4)GlcNAc(b1-2)Man(a1-3)[Gal(b1-4)GlcNAc(b1-2)Man(a1-6)][GlcNAc(b1-4)]Man(b1-4)GlcNAc(b1-4)[Fuc(a1-6)]GlcNAc
# In short: as §1
# [42] = biological target: Gal(b1-4)GlcNAc(b1-2)Man(a1-3)[GlcNAc(b1-2)Man(a1-6)]Man(b1-4)GlcNAc(b1-4)GlcNAc
# In short: as §1
# [43] = biological target: Gal(b1-4)GlcNAc(b1-2)Man(a1-3)[GlcNAc(b1-4)][Gal(b1-4)GlcNAc(b1-2)Man(a1-6)]Man(b1-4)GlcNAc(b1-4)GlcNAc
# In short: as §1
# [44] = biological target: Gal(b1-4)GlcNAc(b1-2)Man(a1-3)[Man(a1-6)]Man(b1-4)GlcNAc(b1-4)GlcNAc
# In short: as §1
# [45] = biological target: Gal(b1-4)GlcNAc(b1-2)Man(a1-6)Man(b1-4)GlcNAc(b1-4)GlcNAc
# In short: as §1
binder,measurement,setting,value
B1,glycan array binding signal (z-score),[1],-0.119
same,glycan array binding signal (z-score),[2],-0.198
same,glycan array binding signal (z-score),[3],0.257
same,glycan array binding signal (z-score),[4],-0.305
same,glycan array binding signal (z-score),[5],-0.424
same,glycan array binding signal (z-score),[6],-0.148
same,glycan array binding signal (z-score),[7],-0.345
same,glycan array binding signal (z-score),[8],-0.321
same,glycan array binding signal (z-score),[9],2
same,glycan array binding signal (z-score),[10],1.05
same,glycan array binding signal (z-score),[11],-0.193
same,glycan array binding signal (z-score),[12],-0.403
same,glycan array binding signal (z-score),[13],-0.275
same,glycan array binding signal (z-score),[14],-0.561
same,glycan array binding signal (z-score),[15],-0.642
same,glycan array binding signal (z-score),[16],-0.346
same,glycan array binding signal (z-score),[17],-0.392
same,glycan array binding signal (z-score),[18],-0.445
same,glycan array binding signal (z-score),[19],-0.329
same,glycan array binding signal (z-score),[20],0.17
same,glycan array binding signal (z-score),[21],1.85
same,glycan array binding signal (z-score),[22],-0.419
same,glycan array binding signal (z-score),[23],-0.359
same,glycan array binding signal (z-score),[24],-0.079
same,glycan array binding signal (z-score),[25],-0.473
same,glycan array binding signal (z-score),[26],-0.003
same,glycan array binding signal (z-score),[27],-0.565
same,glycan array binding signal (z-score),[28],-0.76
same,glycan array binding signal (z-score),[29],-0.299
same,glycan array binding signal (z-score),[30],-0.492
same,glycan array binding signal (z-score),[31],-0.315
same,glycan array binding signal (z-score),[32],-0.294
same,glycan array binding signal (z-score),[33],-0.333
same,glycan array binding signal (z-score),[34],0.037
same,glycan array binding signal (z-score),[35],-0.681
same,glycan array binding signal (z-score),[36],0.934
same,glycan array binding signal (z-score),[37],-0.283
same,glycan array binding signal (z-score),[38],-0.39
same,glycan array binding signal (z-score),[39],-0.334
same,glycan array binding signal (z-score),[40],-0.287
same,glycan array binding signal (z-score),[41],-0.47
same,glycan array binding signal (z-score),[42],-0.455
same,glycan array binding signal (z-score),[43],-0.258
same,glycan array binding signal (z-score),[44],0.863
same,glycan array binding signal (z-score),[45],-0.469
